About 450 (0.94%) of roughly 48,000 compounds were called active. This list was built around the results that the source calls inconclusive (neither active nor inactive); the mix of calls is not that of the screen. Calls follow the shape of the dose curve; as a rule, active = well fitted inhibition curve with a large enough effect; inconclusive = small, poorly fitted or top-dose-only effect; inactive = no such curve, though single readings can be large or run the other way. Where the call is inconclusive, the potency comes from a doubtful curve fit.
Assay: Primary qHTS for Identification of Small Molecule Inhibitors of Huntingtin Promoter Activity; also: nearly all actives have a fitted effect of over 50% in size
Settings: HEK293 HTT promoter firefly luciferase reporter (activity 0% = vehicle and -100% = no light), 24 h; series mostly up to 57.5 µM
Procedure, shortened: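 Luminescence was read after Dual-Glo reagent and a 10 min room-temperature incubation. Values were normalized to vehicle (0% activity) and zero RLU (-100% activity). Reporter HEK293 cells had been exposed to compounds (up to 57.5 uM final) for 24 h.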
For `Cc1nc2scc(C)n2c(=O)c1S(=O)(=O)N1CCN(c2cccc(C(F)(F)F)c2)CC1`, the Potency was inconclusive: 28.2 µM [inhibitor, single point]. With `COc1ccc(CCC(=O)NCCc2csc(-c3ccc(C(F)(F)F)cc3)n2)cc1` the Potency was inconclusive: 39.8 µM [inhibitor, single point]. For `COc1ccc(CNCCC(c2ccccc2)c2ccc3c(c2)OCO3)cc1` (stereo unspecified), the Potency was inconclusive: 39.8 µM [inhibitor, single point]. In the case of `CCCC1=Nc2cc(C(=O)NCCc3ccccc3)ccc2Sc2ccc(C)cc21`, the Potency is reported as inconclusive: 10 µM [inhibitor, partial curve, poor fit]. With `COc1cccc(-c2nc(SCC(=O)NC3CCCC3)c(-c3ccccc3)[nH]2)c1` the Potency was inconclusive: 39.8 µM [inhibitor, single point]. In the case of `Cc1c(-c2nsc(NC(=O)c3cccc(Cl)c3)n2)nnn1-c1ccccc1C(F)(F)F`, the Potency is reported as inconclusive: 39.8 µM [inhibitor, single point]. In the case of `COc1cc(C(=O)N2CCc3c([nH]c4ccccc34)C2c2ccc(C)cc2)cc(OC)c1OC` (stereo unspecified), the Potency is reported as inconclusive: 22.4 µM [inhibitor, partial curve, poor fit]. With `CCCCn1c(NCc2cc(Cl)ccc2O)nc2ccccc21` the Potency was inconclusive: 39.8 µM [inhibitor, partial curve, poor fit]. With `CCN(CCCNC(=O)CSc1cc(=O)n(CC)c2ccccc12)c1cccc(C)c1` the Potency was inconclusive: 39.8 µM [inhibitor, partial curve, poor fit]. In the case of `CC(Sc1cn(CCNC(=O)c2ccccc2F)c2ccccc12)c1ccccc1` (stereo unspecified), the Potency is reported as inconclusive: 39.8 µM [inhibitor, single point]. With `COc1ccc(C)cc1NC(=O)Cn1c(=O)ccc2cc(S(=O)(=O)N3CCC(C)CC3)ccc21` the Potency was inconclusive: 25.1 µM [inhibitor, partial curve, poor fit]. In the case of `Cc1ccc2c(=O)c(C(=O)c3ccc(Cl)cc3)cn(CC(=O)NC3CCCCC3)c2n1`, the Potency is reported as “inactive”. For `COc1ccc2c(c1)c(=O)c(S(=O)(=O)c1ccc(C)cc1)cn2Cc1ccccc1C`, the Potency was inconclusive: 20 µM [inhibitor, partial curve]. In the case of `Oc1c(Cl)cc(Cl)c(Cl)c1Cc1c(O)c(Cl)cc(Cl)c1Cl`, the Potency is reported as inconclusive: 3.55 µM [inhibitor, full curve]. With `Cc1c(NC(=O)C(C)(C)Oc2ccc(Cl)cc2)cccc1-c1nc2ncccc2o1` the Potency was inconclusive: 35.5 µM [inhibitor, partial curve, poor fit]. In the case of `O=C(COc1ccccc1[N+](=O)[O-])Nc1cccc(-c2nc3ccccc3s2)c1`, the Potency is reported as “inactive”. With `COc1cc(NC(=O)CSc2nc3nc(C)c(Cc4ccc(C)cc4)c(C)n3n2)cc(OC)c1OC` the Potency was inconclusive: 14.1 µM [inhibitor, partial curve, poor fit]. For `O=C(CNS(=O)(=O)c1cccs1)N1CCN(c2cccc(C(F)(F)F)c2)CC1`, the Potency was inconclusive: 39.8 µM [inhibitor, single point]. For `Fc1ccc(-c2noc3ncnc(NC4CCCCC4)c23)cc1`, the Potency was inconclusive: 15.8 µM [inhibitor, partial curve, poor fit]. With `CC[C@]1(O)C[C@H]2CN(CCc3c([nH]c4ccccc34)[C@@](C(=O)OC)(c3cc4c(cc3OC)N(C=O)[C@H]3[C@@](O)(C(=O)OC)[C@H](OC(C)=O)[C@]5(CC)C=CCN6CC[C@]43[C@@H]65)C2)C1` the Potency was inconclusive: 0.0485 µM [inhibitor, full curve]. For `CCCCOc1cccc(C(=O)N(Cc2sccc2C)C2CCS(=O)(=O)C2)c1` (stereo unspecified), the Potency was inconclusive: 31.6 µM [inhibitor, partial curve, poor fit]. For `Cc1cc(Nc2cccc(Cl)c2)nc2ccc(NC(=O)Cc3cccc(C(F)(F)F)c3)cc12`, the Potency was inconclusive: 39.8 µM [inhibitor, single point]. For `Cc1cccc(N2CCN(C(=O)CCCCn3c(=O)[nH]c4ccsc4c3=O)CC2)c1C`, the Potency was inconclusive: 25.1 µM [inhibitor, single point]. In the case of `COc1cc(C2CC(=O)Nc3cc4c(cc32)OCCO4)cc(Br)c1OC` (stereo unspecified), the Potency is reported as inconclusive: 1.12 µM [inhibitor, full curve, poor fit]. With `O=C(NCCCc1ccccc1)C1CCN(C(=O)N2CCOc3ccc(Cl)cc32)CC1` the Potency was inconclusive: 39.8 µM [inhibitor, single point]. In the case of `CCc1ccc(-c2nc(CS(=O)CC(=O)NCCc3ccc(Cl)cc3)c(C)o2)cc1` (stereo unspecified), the Potency is reported as inconclusive: 25.1 µM [inhibitor, partial curve, poor fit]. In the case of `CCOc1ccc2oc(=O)cc(CN3CCN(C(=O)c4ccc(F)cc4)CC3)c2c1`, the Potency is reported as “inactive”. For `Cc1c(C(=O)Nc2cccc(Cl)c2)oc2ccc(S(=O)(=O)N(C)C3CCCCC3)cc12`, the Potency was inconclusive: 31.6 µM [inhibitor, partial curve, poor fit]. With `COc1cccc(NC(=O)Cn2c(=O)n(-c3ccc(C)cc3)c(=O)c3ccc(C(=O)NCc4ccco4)cc32)c1` the Potency was inconclusive: 31.6 µM [inhibitor, single point]. In the case of `COc1ccc(CCNC(=O)C(=O)NCC(c2ccco2)S(=O)(=O)c2ccc(F)cc2)cc1` (stereo unspecified), the Potency is reported as inconclusive: 39.8 µM [inhibitor, partial curve, poor fit]. With `Cc1cccc(N2CCN(S(=O)(=O)c3cc(C(=O)Nc4ccccc4Cl)ccc3F)CC2)c1C` the Potency was inconclusive: 39.8 µM [inhibitor, partial curve, poor fit]. For `CC(C)(C)OC(=O)N1CCC(c2c(C(=O)NCCN3CCC(Cc4ccccc4)CC3)cnn2-c2ccc(F)cc2)CC1`, the Potency was inconclusive: 25.1 µM [inhibitor, single point]. In the case of `CCc1ccc(OCC2c3cc(OC)c(OC)cc3CCN2C(=O)COc2ccccc2)cc1` (stereo unspecified), the Potency is reported as inconclusive: 28.2 µM [inhibitor, partial curve, poor fit]. For `COc1cccc(NC(=O)C(Cc2ccccc2)NS(=O)(=O)c2ccc3c(c2)oc(=O)n3C)c1` (stereo unspecified), the Potency was inconclusive: 35.5 µM [inhibitor, single point]. With `CCOc1ccc(CCNC(=O)c2cc3c(-c4ccc(OC)c(OC)c4)nn(C)c3s2)cc1OCC` the Potency was inconclusive: 17.8 µM [inhibitor, partial curve, poor fit]. For `CC(C)n1c(=N)c(C(=O)NCc2ccccc2)cc2c(=O)n3ccccc3nc21`, the Potency was “inactive”. In the case of `CC(C)CC(=O)Nc1c(C(=O)N2CCN(c3ccccc3)CC2)oc2ccccc12`, the Potency is reported as inconclusive: 28.2 µM [inhibitor, single point]. For `COc1cc2c(=O)n(CCc3ccccc3)c(=O)n(CC(=O)Nc3ccccc3)c2cc1OC`, the Potency was “inactive”. In the case of `CCOc1ccc(C(=O)c2cn(CC(=O)Nc3ccc(Cl)cc3)c3cc4c(cc3c2=O)OCCO4)cc1`, the Potency is reported as inconclusive: 2.24 µM [inhibitor, full curve]. In the case of `CCOc1ccc(-c2ccc(NS(=O)(=O)c3ccc(C)cc3)cc2)nn1`, the Potency is reported as inconclusive: 12.6 µM [inhibitor, partial curve]. With `COc1ccc(CCCc2nnc(SCC(=O)Nc3ccc(C)cc3)o2)cc1` the Potency was inconclusive: 0.178 µM [inhibitor, partial curve, poor fit]. With `Cc1ccc(C)c(N2CCN(CCCNC(=O)c3cnn(-c4ccccc4Cl)c3C3CCN(C(=O)OC(C)(C)C)CC3)CC2)c1` the Potency was inconclusive: 22.4 µM [inhibitor, single point]. In the case of `CCc1cc(C(C)=NOCc2ccc(C3CCCCC3)c(C(F)(F)F)c2)ccc1CN1CC(C(=O)O)C1`, the Potency is reported as “inactive”. For `Cc1c(CCNC(=O)c2ccc(Br)o2)sc2nc(-c3ccc(F)cc3)nn12`, the Potency was inconclusive: 31.6 µM [inhibitor, single point]. With `CCc1cccc(NC(=O)CSC2=Nc3ccccc3N=C(c3ccc(F)cc3)C2)c1` the Potency was inconclusive: 25.1 µM [inhibitor, single point]. With `Fc1ccc(-c2noc3ncnc(NCCc4ccccc4)c23)cc1` the Potency was inconclusive: 28.2 µM [inhibitor, single point]. With `COc1ccc(Nc2nc(-c3ccc(C)cc3)nc3ccccc23)c(OC)c1` the Potency was inconclusive: 22.4 µM [inhibitor, partial curve]. For `Cc1ccccc1N1CC(c2nc3ccccc3n2CCC2CCCCC2)CC1=O` (stereo unspecified), the Potency was inconclusive: 39.8 µM [inhibitor, partial curve, poor fit]. For `O=C(NCCc1ccccc1Cl)c1ccc(Cn2c(=O)c3cccn3c3cccnc32)cc1`, the Potency was inconclusive: 35.5 µM [inhibitor, single point]. With `CCc1ccccc1NC(=O)c1c(NC(=O)c2ccccc2)sc2c1CCCC2` the Potency was “inactive”. In the case of `CCOC(=O)C1CCC(CN(Cc2cccc(Br)c2)S(=O)(=O)c2ccc(C)cc2)CC1` (stereo unspecified), the Potency is reported as inconclusive: 25.1 µM [inhibitor, single point]. With `COc1ccc(S(=O)(=O)Nc2ccc3c(c2)N(C(C)=O)CCC3)cc1F` the Potency was inconclusive: 15.8 µM [inhibitor, partial curve, poor fit]. With `Cc1ccc(C)c(N2CCN(C(=O)C3CCCN(S(=O)(=O)c4ccc5c(c4)oc(=O)n5C)C3)CC2)c1` (stereo unspecified) the Potency was inconclusive: 10 µM [inhibitor, partial curve, poor fit]. With `CCOc1cc(OCC)c(C(=O)CCC(=O)O)cc1OCC` the Potency was “inactive”. With `COCCCNC(=O)c1ccc(NC(=O)c2nsc3ccccc23)cc1` the Potency was inconclusive: 22.4 µM [inhibitor, single point]. For `CCc1nc2ccccc2n1CCCCOc1ccc(C)cc1`, the Potency was inconclusive: 39.8 µM [inhibitor, single point].
Potency is read from the fitted curve at half-maximal effect; tags tell the direction and shape of the fitted curve.
